Measured values: paper PMC4336329 (PLoS ONE, 2015)
Screen size: about 310,000 compounds; about 2,200 (0.71%) showed an effect of 50% or more. Effects have a minus sign here. Some of the results follow.

target: human ether-à-go-go-related gene (hERG) potassium channel (human, UniProt Q12809); experiment: primary screen, population patch clamp on CHO cells stably expressing hERG
Sequence (Q12809 whole entry, looked up): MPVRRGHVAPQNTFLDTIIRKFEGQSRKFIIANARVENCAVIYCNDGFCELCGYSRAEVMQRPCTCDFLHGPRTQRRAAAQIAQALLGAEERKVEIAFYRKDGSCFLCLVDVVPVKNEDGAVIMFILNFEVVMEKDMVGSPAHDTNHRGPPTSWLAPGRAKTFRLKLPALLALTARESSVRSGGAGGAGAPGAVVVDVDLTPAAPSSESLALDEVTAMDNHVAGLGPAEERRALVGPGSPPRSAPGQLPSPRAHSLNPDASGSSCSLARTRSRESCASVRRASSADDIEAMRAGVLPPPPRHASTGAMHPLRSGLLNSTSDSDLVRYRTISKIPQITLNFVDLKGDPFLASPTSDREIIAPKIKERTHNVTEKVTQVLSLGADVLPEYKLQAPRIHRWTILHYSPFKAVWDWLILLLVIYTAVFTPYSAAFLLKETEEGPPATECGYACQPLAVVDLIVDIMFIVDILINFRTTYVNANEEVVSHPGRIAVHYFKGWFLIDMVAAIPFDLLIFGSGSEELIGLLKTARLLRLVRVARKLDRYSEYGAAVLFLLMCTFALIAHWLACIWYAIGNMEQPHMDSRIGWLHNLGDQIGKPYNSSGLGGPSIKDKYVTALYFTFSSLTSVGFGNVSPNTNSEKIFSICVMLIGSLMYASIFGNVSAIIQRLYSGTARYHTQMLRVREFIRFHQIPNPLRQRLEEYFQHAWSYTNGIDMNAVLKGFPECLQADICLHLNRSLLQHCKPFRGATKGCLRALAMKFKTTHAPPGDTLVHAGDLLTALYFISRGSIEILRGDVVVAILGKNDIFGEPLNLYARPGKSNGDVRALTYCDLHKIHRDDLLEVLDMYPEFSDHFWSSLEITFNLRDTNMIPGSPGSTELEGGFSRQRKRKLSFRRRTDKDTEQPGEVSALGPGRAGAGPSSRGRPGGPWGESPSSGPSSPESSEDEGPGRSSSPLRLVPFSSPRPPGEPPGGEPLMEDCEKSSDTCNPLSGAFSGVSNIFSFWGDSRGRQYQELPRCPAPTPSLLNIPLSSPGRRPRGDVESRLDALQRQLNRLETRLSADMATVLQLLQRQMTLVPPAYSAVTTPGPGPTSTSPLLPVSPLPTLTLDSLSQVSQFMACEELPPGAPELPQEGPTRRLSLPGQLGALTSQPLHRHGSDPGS

Row | Structure (SMILES) | hERG current change (%, negative = inhibition) at 1uM
1 | CC(=O)Nc1ccc2nc(CN3CCN(CC=C(C)C)C(CCO)C3)ccc2c1 (centres unmarked) | 3.95%
2 | CC(=O)Nc1ccc(S(=O)(=O)Nc2cccc(C(=O)NC(C)(C)C)c2)cc1 | -4.58%
3 | CCOc1ccccc1CN1CCN(Cc2ccon2)CC1CCO (centres unmarked) | -7.08%
4 | Cc1occc1C(=O)NNC(=S)Nc1ccccc1 | 8.65%
5 | CC1=NNC(=O)C1CC(=O)N/N=C(\C)c1ccco1 (centres unmarked) | 15.7%
6 | CNC(=S)N(CCc1ccc(OC)c(OC)c1)Cc1cc2c(C)cc(C)cc2[nH]c1=O | 2.31%
7 | O=C(CNC(=O)c1cccs1)NCC(=O)OCc1c(Cl)cccc1Cl | 1.99%
8 | COc1ccc(CC(=O)Nc2ccc(-c3noc(-c4ccccc4OC)n3)cc2)cc1 | -11.7%
9 | Cc1cc2n(n1)C(c1ccccc1Cl)Nc1ccccc1-2 (centres unmarked) | 7.12%
10 | CCC1=NN2C(=N)/C(=C/c3ccc(OS(=O)(=O)c4ccccc4)c(OC)c3)C(=O)N=C2S1 | 13%
11 | O=C(NCCc1ccccc1)NC(Cc1ccccc1)C(=O)O (centres unmarked) | 12.6%
12 | CC(C)(C)C1CCC(OC(=O)C[N+]2(C)CCCCC2)CC1.[I-] (centres unmarked) | 7.41%
13 | Br.COc1cccc(C(=O)Cn2c(=N)n(C)c3ccccc32)c1 | -17.5%
14 | COc1cc(CCC(=O)Nc2nnc(-c3cccnc3)s2)cc(OC)c1OC | 9.73%
15 | Cc1ccc(NC(=O)/C(C#N)=C/c2ccccc2C(F)(F)F)cc1 | 4.19%
16 | Cc1cc(C)cc(OCC(=O)N/N=C/c2ccco2)c1 | 18.2%
17 | CN(C)S(=O)(=O)c1ccc(C(=O)Nc2ccccn2)cc1 | 3.36%
18 | COc1cccc(-n2cn[nH]c2=S)c1 | 12%
19 | N#Cc1nc(Cc2cccc3ccccc23)oc1NCC1CCCO1 (centres unmarked) | 3.91%
20 | O=C(N/N=C/c1ccc(Cl)cc1Cl)Nc1ccccc1 | 23.1%
21 | Cn1c(=O)n(CCc2ccccc2)c(=O)c2c1ncn2Cc1ccccc1 | 11.8%
22 | COc1cc(-c2noc(C)c2C#Cc2ccsc2)cc(OC)c1OC | 12.2%
23 | CCCC(=O)Nc1c2c(nn1-c1ccc(F)cc1)CS(=O)(=O)C2 | 9.12%

Row | Structure (SMILES) | hERG current change (%, negative = inhibition) at 1uM
24 | CC(=O)OC(C(=O)NC1CCCCC1)c1ccncc1 (centres unmarked) | 10.1%
25 | O=C(NNC(=O)C1CCC1)c1ccccc1 | 6.93%
26 | CC(=NC(C)C)C1=C(O)CCC1=O | 11.3%
27 | O=C1NC(=O)C2(Cc3ccccc3N3CCCC32)C(=O)N1Cc1ccccc1 (centres unmarked) | -0.0862%
28 | C=CCOc1c2ccc(C(=O)NCCc3ccc(C)cc3)cc2nn1C | 5.19%
29 | COc1ccc(/C=C/C(=O)OCc2nc3ccccc3c(=O)[nH]2)c(OC)c1 | 6.43%
30 | COc1ccc2c(c1)c(CC(=O)Nc1ccc(C)cc1)c(C)n2C(=O)c1ccc(Cl)cc1 | -3.28%
31 | CCC12CN3CCN(CC(C3)/C1=N\O)C2 | -2.57%
32 | OCC1(Cc2cccc(Cl)c2)CCCN(Cc2ccc(F)c(F)c2)C1 (centres unmarked) | 3.44%
33 | COc1cc2ccccc2cc1C(=O)NCCCN1CCOCC1 | 3.68%
34 | Cc1ccccc1OCCN1C(=O)NC2(CCc3ccccc32)C1=O (centres unmarked) | 3.63%
35 | CC(=O)c1ccc(NC(=O)c2ccc(COc3ccccc3[N+](=O)[O-])o2)cc1 | 3.96%
36 | CCOC(=O)c1oc2cc(OC(C)=O)ccc2c(=O)c1-c1ccc(OC)c(OC)c1 | 6.07%
37 | CCCCc1ccc(Nc2nc(N3CCOCC3)nc(N3CCOCC3)n2)cc1.Cl | 10.6%
38 | CCOC(=O)CNC(=O)CSc1nnc(-c2ccco2)n1N | 18.4%
39 | CC(C)OC(=O)C1C(=O)CC(C)(O)C(C(=O)OC(C)C)C1c1cccc(O)c1 (centres unmarked) | 4.01%
40 | CCOc1ccc(NS(=O)(=O)c2ccc3[nH]cc(C(=O)N(CC)CC)c(=O)c3c2)cc1 | -27.1%
41 | CC(C)(C(=O)N[C@H](CO)c1ccccc1)C(=O)N[C@H](CO)c1ccccc1 | 5.64%
42 | N#C/C(=C\c1c(Cl)cccc1Cl)c1nn(-c2ccccc2)c(-n2cccc2)c1C#N | 11.7%
43 | CC1=C(C(=O)NCc2ccccc2)C(c2ccc(C)o2)n2ncnc2N1 (centres unmarked) | -5.48%
44 | N#CC1=C(N)Oc2n[nH]c(-c3cccs3)c2C1c1ccncc1 (centres unmarked) | 13.9%
45 | O=S(=O)(Nc1cc(S(=O)(=O)N2CCOCC2)ccc1N1CCCC1)c1cccs1 | 3.78%
46 | CCN(CC(=O)NCc1ccc(F)cc1)C(=O)c1ccc(COc2ccccc2)cc1 | -2.6%

Row | Structure (SMILES) | hERG current change (%, negative = inhibition) at 1uM
47 | CCN(C(=O)COC(=O)c1cnc(C)cn1)c1c(N)n(Cc2ccccc2)c(=O)[nH]c1=O | 8.54%
48 | O=S(=O)(c1ccccc1)c1ccc(N2CCCCCC2)cc1 | 7.46%
49 | Cc1c(C(=O)NCc2ccccc2)oc2c1C(=O)CCC2 | 9.37%
50 | Cn1cc(CN2CCCC(CNS(=O)(=O)c3cccc4cccnc34)C2)cn1 (centres unmarked) | 11.4%
51 | COc1ccc(N(C)S(=O)(=O)c2ccc3c(c2)CCN3C(=O)C2CC2)c(OC)c1 | 14.3%
52 | CCN(CC)C(=O)CCc1nc2sc3c(c2c(=O)[nH]1)CCCC3 | 1.79%
53 | N#Cc1ncc(Cc2ccccc2)nc1C#N | 13%
54 | CCOC(=O)c1ccc(NC(=S)N2CCC(C(N)=O)(N3CCCCC3)CC2)cc1 | 8.71%
55 | Cc1[nH]c(=O)[nH]c(=O)c1S(=O)(=O)N(CC(C)C)CC(C)C | 17%
56 | CCn1c(=O)cc(OCC(=O)Nc2ccc(C)cn2)c2ccccc21 | 10%
57 | O=C(NCCCN1CCOCC1)c1ccc(CNS(=O)(=O)c2ccc(Br)cc2)cc1 | 0.752%
58 | CCn1nnc(NC(=O)c2cc(Cl)c(OC)c(Cl)c2)n1 | 1.21%
59 | Cc1ccc(C)c(N2CCN(C(=O)COc3cc(=O)n(C)c4ccccc34)CC2)c1 | 7.82%
60 | N#CCc1ccc(NC(=O)c2ccc(S(=O)(=O)N3CCCC3)cc2)cc1 | 15.4%
61 | CC1CCc2c(sc(NC(=O)CSc3nnc(-c4ccccc4)o3)c2C#N)C1 (centres unmarked) | 13.6%
62 | CCc1c(C)nc2cc(-c3cccc(Br)c3)[nH]n2c1=O | 15.5%
63 | COc1cc(-c2noc(C)c2C#Cc2nccn2C)cc(OC)c1OC | 7.03%
64 | Cc1nnc(NC(=O)C2CC(=O)N(c3ccc4c(c3)OCCO4)C2)s1 (centres unmarked) | 10.3%
65 | CCOc1ccc2c(c1)c(C(C)=O)c(C)n2-c1ccccc1 | 2.51%
66 | CC(C)Cc1cc(C(=O)N2CCC(N3CCC(C(=O)N4CCOCC4)CC3)CC2)n[nH]1 | -2.21%
67 | COc1cccc(CNc2ncc(C(=O)Nc3cc(OC)c(OC)c(OC)c3)c(C)n2)c1 | 14.1%
68 | C/C(=N\N=C(/N)SC1CC(=O)N(c2ccc(Cl)cc2)C1=O)c1cccs1 (centres unmarked) | 10.3%
69 | O=C(CCCc1c[nH]c2ccccc12)NCC1COc2ccccc2O1 (centres unmarked) | 10%

Row | Structure (SMILES) | hERG current change (%, negative = inhibition) at 1uM
70 | CCn1nc2cc(C(=O)NCc3cc(C(F)(F)F)cc(C(F)(F)F)c3)ccc2c1OC | 12.2%
71 | COc1ccc(CCNC(=O)Cn2cnc3c(nnn3Cc3ccc(C)cc3)c2=O)cc1OC | 16.9%
72 | Cc1cc(OC(F)F)ccc1NC(=S)NCCc1ccccc1 | 9.68%
73 | FC(F)(F)c1cc(-c2ccccc2)nc(N2CCCCC2)n1 | 16.2%
74 | Cc1ccc(S(=O)(=O)NNC(=O)c2ccc(NC(=O)C3CC3)cc2)cc1 | 15.1%
75 | Cc1ccc(NC2CCCN(C(=O)CCN3CCOCC3)C2)cc1C (centres unmarked) | 3.95%
76 | CCc1ccc(NCCC(=O)c2ccc(Cl)cc2)cc1 | 18.6%
77 | COc1ccc2oc(C(=O)OCC(=O)Nc3cc(S(=O)(=O)N4CCOCC4)ccc3C)c(C)c2c1 | 5.19%
78 | O=C(c1ccc(F)cc1)C1CCN(C(=O)N2CCOCC2)CC1 | 4.9%
79 | COc1ccc(CC(=O)N/N=C(\C)c2ccc(Br)s2)cc1 | 14.1%
80 | O=C(O)c1ccccc1-c1nc2cc(Cl)ccc2c(=O)n1O | 16%
81 | CC(C)OC(=O)NCCOC(=O)Nc1cccc(Cl)c1 | 18.8%
82 | CCC(=O)Nc1ccc(NC(=O)c2ccc3ccccc3c2)cc1 | 11.9%
83 | O=C(c1ccccc1)c1c(O)cc(-c2ccccc2)oc1=O | 15.6%
84 | CCOC(=O)COn1c(=O)c(-c2ccc(C)cc2)[n+]([O-])c2ccccc21 | 24.3%
85 | CCN1CCN(C(c2ccccc2)c2nnnn2Cc2ccc(OC)cc2)CC1.Cl (centres unmarked) | 11.3%
86 | CCCn1c(SCC(=O)O)nc2ccccc21 | 8.03%
87 | O=C(c1ccccc1NS(=O)(=O)c1ccccc1)N1CCCCCC1 | 14%
88 | COc1cc2cc3c(N)c(C(=O)NCc4ccco4)sc3nc2cc1OC | 4.74%
89 | Cc1cc(N2CCOCC2)nc2ccc(NC(=O)CCC(=O)N3CCN(c4ccccc4)CC3)cc12 | 6.18%
